# Results as given in PubChem BioAssay AID1240 (Sanford-Burnham Center for Chemical Genomics, 2008).
# The whole screen tested about 50,000 compounds, of which about 800 (1.6%) showed an effect of 50% or more. The list shows a part of the results.
# Biological target: Bcl-2-like protein 10 (Homo sapiens) (UniProt Q9HD36)
# Assay: Phenotype converters, Bcl-B/TR3 peptide binding displacement, primary biochemical FP (AID 1240);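 further: 0% = Bcl-B with tracer peptide and DMSO and 100% = tracer peptide lacking Bcl-B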
# Conditions: GST-Bcl-B / FITC-TR3 peptide fluorescence polarization; stronger effect = higher value; compound at 3.75 mg/L
# Chain of UniProt Q9HD36 (Q9HD36 whole entry, looked up): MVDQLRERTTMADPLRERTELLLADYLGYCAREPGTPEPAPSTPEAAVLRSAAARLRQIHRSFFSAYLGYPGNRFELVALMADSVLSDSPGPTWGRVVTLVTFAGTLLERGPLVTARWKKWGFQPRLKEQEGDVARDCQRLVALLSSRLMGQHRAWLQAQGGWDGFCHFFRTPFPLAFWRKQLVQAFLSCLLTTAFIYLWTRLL
row,Structure (SMILES),displacement [%]
1,O=C(Nc1ncc(Br)cc1Br)c1cccc2ccccc12,-0.9
2,CCOc1ccc(C2C(C(C)=O)=C(O)C(=O)N2CCN(C)C)cc1 (centres undefined),1.9
3,O=C(NCCCO)c1cccc([N+](=O)[O-])c1,0.3
4,COc1ccc(NC2OC(=O)c3c2ccc(OC)c3OC)cc1 (centres undefined),8.6
5,COc1cccc(NC(=O)C2CC(=O)N(c3ccc(Cl)cc3)C2)c1 (centres undefined),8
6,COc1ccc(Br)cc1/C=C/C(=O)Nc1cc(C)ccn1,-46.5
7,Cc1ccc(C(C)C)c(OCC(=O)Nc2ccc3c(c2)OCO3)c1,9.8
8,COC(=O)CCC(=O)Nc1cc(C)ccc1C,3.4
9,Cc1cc(=O)[nH]c(SCC(=O)Nc2ccc(Cl)cc2)n1,-10.6
10,CCOc1ccccc1N(CC(=O)Nc1cc(OC)ccc1OC)S(=O)(=O)c1ccccc1,5.4
11,COc1ccc(N(CC(N)=O)S(=O)(=O)c2ccc(C)cc2)cc1,5
12,CCC(C)(C)C1CCc2c(sc(NC(C)=O)c2C(N)=O)C1 (centres undefined),7.8
13,Cc1ccc(Cl)cc1NC(=O)CSc1nc2ccc([N+](=O)[O-])cc2s1,2.5
14,O=C(NCCN1CCN(C(=O)c2ccc(Cl)cc2Cl)CC1)c1ccc(Cl)cc1Cl,10.3
15,O=C(O)C1C2C=CC(O2)C1C(=O)Nc1ccc(I)cc1 (centres undefined),9.6
16,CN1C(=O)/C(=C\c2nc3ccccc3c(=O)n2-c2ccccc2)c2cc(Br)ccc21,-5.9
17,COc1ccc(CCNC(=O)C2CC(=O)N(c3ccc(F)cc3)C2)cc1OC (centres undefined),-0.6
18,COC(=O)C1=C(C)N=c2s/c(=C\c3cccc(Br)c3)c(=O)n2C1c1ccccc1 (centres undefined),6.9
19,COc1ccccc1N1CCN(C(=O)C(c2ccccc2)c2ccccc2)CC1,-6.1
20,O=C(O)c1ccccc1C(=O)Nc1ncc(S(=O)(=O)c2ccc([N+](=O)[O-])cc2)s1,-3.8
21,CN(C)/C=C/C(=O)c1nnn(C2CCCCC2)c1NC1CCCCC1,2.2
22,CCN(CC)CCCNC(=O)c1cc(C(=O)OC)cc([N+](=O)[O-])c1,-9.6
23,COc1ccc(C2=NN(C(=O)c3cccc([N+](=O)[O-])c3)C(c3cccc([N+](=O)[O-])c3)C2)cc1 (centres undefined),-3.1
24,O=C(Nc1ccc2nn(-c3cccc([N+](=O)[O-])c3)nc2c1)c1cccs1,15.9
25,CC1=CC(C)(C)N(C(=O)C(C)N2C(=O)c3ccccc3C2=O)c2cc(C)c(C)cc21 (centres undefined),-2.1
26,COc1ccc(N(CC(=O)Nc2cccc3ccccc23)S(C)(=O)=O)c(OC)c1,2.2
27,COc1cccc(CNC2CCCc3ccccc32)c1OC (centres undefined),5.1
28,Cc1nnsc1C(=O)NC(C)C12CC3CC(CC(C3)C1)C2 (centres undefined),0.6
29,C=CCOc1ccc(/C=C/C(=O)c2ccc(C)cc2)cc1OC,-15.3
